# Some of the results follow. Single values are uncertain, as repeats are few or missing.
# Assays:
# Test in all cases: cell count relative to DMSO control; melanoma cells; higher = more viable cells
# Conditions in all cases: library dose: low library concentration; 72 h
# MZ2-MEL = test system: MZ2-MEL
# MeWo = test system: MeWo
# RPMI7951 = test system: RPMI7951
# RVH-421 = test system: RVH-421
# SkMel28 = test system: SkMel28
# SkMel2 = test system: SkMel2
# SkMel30 = test system: SkMel30
# UACC62 = test system: UACC62
# WM115 = test system: WM115
# WM1716 = test system: WM1716
# WM1745 = test system: WM1745
# WM3526 = test system: WM3526
# WM3619 = test system: WM3619
# WM451Lu = test system: WM451Lu
# 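Further: cell number obtained by counting DAPI-stained nuclei in high-throughput microscope images with image analysis software, screen run in 1,536-well plates.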
Compound,cell count (MZ2-MEL) [%],cell count (MeWo) [%],cell count (RPMI7951) [%],cell count (RVH-421) [%],cell count (SkMel28) [%],cell count (SkMel2) [%],cell count (SkMel30) [%],cell count (UACC62) [%],cell count (WM115) [%],cell count (WM1716) [%],cell count (WM1745) [%],cell count (WM3526) [%],cell count (WM3619) [%],cell count (WM451Lu) [%]
"CC[C@]1(O)C[C@H]2CN(CCc3c([nH]c4ccccc34)[C@@](C(=O)OC)(c3cc4c(cc3OC)N(C=O)[C@H]3[C@@](O)(C(=O)OC)[C@H](OC(C)=O)[C@]5(CC)C=CCN6CC[C@]43[C@@H]65)C2)C1 [vincristine] + C[C@]1(O)C[C@@H](c2nc(-c3ccc4ccc(-c5ccccc5)nc4c3)c3c(N)nccn32)C1 [OSI906] (first compound 0.0001 µM, partner dose 0.4 µM)",106,95.2,94.4,101,104,96.4,75.7,113,90.8,66.2,76,93.6,97.6,89.2
"Cc1cc(Nc2cc(N3CCN(C)CC3)nc(Sc3ccc(NC(=O)C4CC4)cc3)n2)n[nH]1 [Tozasertib] + Cn1sc(=O)n(Cc2ccccc2)c1=O [TDZD-8] (first compound 0.006 µM, partner dose 0.4 µM)",96.2,104,92.7,89.2,85.8,108,95.4,84.3,97.5,103,91.4,107,106,107
"Cc1cc(Nc2cc(N3CCN(C)CC3)nc(Sc3ccc(NC(=O)C4CC4)cc3)n2)n[nH]1 [Tozasertib] + Clc1ccc(Nc2nnc(Cc3ccncc3)c3ccccc23)cc1 [vatalanib] (first compound 0.006 µM, partner dose 2 µM)",92.8,72.6,93.7,97.5,91.7,96.9,111,83.8,89.9,83.9,84.2,89.4,87.6,90.6
"Cc1cc(Nc2cc(N3CCN(C)CC3)nc(Sc3ccc(NC(=O)C4CC4)cc3)n2)n[nH]1 [Tozasertib] + Nc1ccn([C@@H]2O[C@H](CO)[C@@H](O)C2(F)F)c(=O)n1 [gemcitabine] (first compound 0.006 µM, partner dose 0.0004 µM)",92.6,89.3,96.5,98.2,90.4,102,94.2,115,100,101,57.5,98,79,113
"Cc1cc(Nc2cc(N3CCN(C)CC3)nc(Sc3ccc(NC(=O)C4CC4)cc3)n2)n[nH]1 [Tozasertib] + CC1(C)CCC(c2ccc(Cl)cc2)=C(CN2CCN(c3ccc(C(=O)NS(=O)(=O)c4ccc(N[C@H](CCN5CCOCC5)CSc5ccccc5)c(S(=O)(=O)C(F)(F)F)c4)cc3)CC2)C1 [ABT263] (first compound 0.006 µM, partner dose 0.4 µM)",94.9,59.2,46.5,53.4,86.1,94.3,61.1,79.3,67.7,68.6,19.9,96.5,92.1,98.4
"N#CC[C@H](C1CCCC1)n1cc(-c2ncnc3[nH]ccc23)cn1 [ruxolitinib] + Nc1cccc2c1CN(C1CCC(=O)NC1=O)C2=O [lenalidomide] (first compound 1 µM, partner dose 1 µM)",98.2,105,109,99.9,123,99.5,113,108,123,97.3,103,,120,91.9
"N#CC[C@H](C1CCCC1)n1cc(-c2ncnc3[nH]ccc23)cn1 [ruxolitinib] + CS(=O)(=O)c1ccc(C(=O)Nc2ccc(Cl)c(-c3ccccn3)c2)c(Cl)c1 [vismodegib] (first compound 1 µM, partner dose 1 µM)",92.5,95.8,69.6,86.7,108,101,99.8,108,106,114,107,114,75.1,82.2
"CC[C@]1(O)C[C@H]2CN(CCc3c([nH]c4ccccc34)[C@@](C(=O)OC)(c3cc4c(cc3OC)N(C=O)[C@H]3[C@@](O)(C(=O)OC)[C@H](OC(C)=O)[C@]5(CC)C=CCN6CC[C@]43[C@@H]65)C2)C1 [vincristine] + Nc1ncn([C@H]2C[C@H](O)[C@@H](CO)O2)c(=O)n1 [decitabine] (first compound 0.0001 µM, partner dose 0.1 µM)",83.9,84.8,61,70.3,74.8,103,74.9,52.1,50.2,50.2,94.5,63,87.7,57.9
"CC[C@]1(O)C[C@H]2CN(CCc3c([nH]c4ccccc34)[C@@](C(=O)OC)(c3cc4c(cc3OC)N(C=O)[C@H]3[C@@](O)(C(=O)OC)[C@H](OC(C)=O)[C@]5(CC)C=CCN6CC[C@]43[C@@H]65)C2)C1 [vincristine] + CCCCCCCCCCCCCCCCCCOP(=O)([O-])OC1CC[N+](C)(C)CC1 [Perifosine] (first compound 0.0001 µM, partner dose 0.4 µM)",96.8,79.7,74.7,87.7,70.7,,60.8,63.7,59,43.6,98.1,65,71.1,62.8
"N#CC[C@H](C1CCCC1)n1cc(-c2ncnc3[nH]ccc23)cn1 [ruxolitinib] + Nc1ncn([C@H]2C[C@H](O)[C@@H](CO)O2)c(=O)n1 [decitabine] (first compound 1 µM, partner dose 0.1 µM)",88.3,101,75.6,73.3,96.5,104,107,87.7,84.8,81.1,86,98.8,105,91.8
"N#CC[C@H](C1CCCC1)n1cc(-c2ncnc3[nH]ccc23)cn1 [ruxolitinib] + O=C(Nc1cc(C(F)(F)F)cc(C(F)(F)F)c1)c1cc(Cl)ccc1O [IMD0354] (first compound 1 µM, partner dose 0.016 µM)",102,101,104,96.8,126,108,104,125,112,111,99.3,99.7,91.3,108
"CC[C@]1(O)C[C@H]2CN(CCc3c([nH]c4ccccc34)[C@@](C(=O)OC)(c3cc4c(cc3OC)N(C=O)[C@H]3[C@@](O)(C(=O)OC)[C@H](OC(C)=O)[C@]5(CC)C=CCN6CC[C@]43[C@@H]65)C2)C1 [vincristine] + Cc1nc(Nc2ncc(C(=O)Nc3c(C)cccc3Cl)s2)cc(N2CCN(CCO)CC2)n1 [dasatanib] (first compound 0.0001 µM, partner dose 0.004 µM)",79.5,74.9,39.8,70.8,65.7,87.6,55.9,54.4,37,35.9,60.4,68.7,47.1,68.8
"N#CC[C@H](C1CCCC1)n1cc(-c2ncnc3[nH]ccc23)cn1 [ruxolitinib] + Cc1cn(-c2cc(NC(=O)c3ccc(C)c(Nc4nccc(-c5cccnc5)n4)c3)cc(C(F)(F)F)c2)cn1 [nilotinib] (first compound 1 µM, partner dose 0.2 µM)",92.5,88.9,87.3,102,123,96.3,97.2,107,114,96.1,85.7,,99.5,87.5
"CC[C@]1(O)C[C@H]2CN(CCc3c([nH]c4ccccc34)[C@@](C(=O)OC)(c3cc4c(cc3OC)N(C=O)[C@H]3[C@@](O)(C(=O)OC)[C@H](OC(C)=O)[C@]5(CC)C=CCN6CC[C@]43[C@@H]65)C2)C1 [vincristine] + CNC(=O)c1cc(Oc2ccc(NC(=O)Nc3ccc(Cl)c(C(F)(F)F)c3)cc2)ccn1 [sorafenib] (first compound 0.0001 µM, partner dose 0.4 µM)",80.5,78.6,36.7,80.8,69.4,78.1,60,54.8,51.7,38,71.8,57.2,42.9,58.2
"N#CC[C@H](C1CCCC1)n1cc(-c2ncnc3[nH]ccc23)cn1 [ruxolitinib] + Cc1cc(Nc2cc(N3CCN(C)CC3)nc(/C=C/c3ccccc3)n2)n[nH]1 [ENMD2076] (first compound 1 µM, partner dose 0.04 µM)",98.6,101,80,72.4,105,88.6,87.7,113,108,103,89.2,93.8,94.3,79.8
"N#CC[C@H](C1CCCC1)n1cc(-c2ncnc3[nH]ccc23)cn1 [ruxolitinib] + CS(=O)(=O)CCNCc1ccc(-c2ccc3ncnc(Nc4ccc(OCc5cccc(F)c5)c(Cl)c4)c3c2)o1 [lapatinib] (first compound 1 µM, partner dose 0.8 µM)",99.4,93,90.7,100,102,112,91.7,,123,104,111,116,93.2,74.8
"N#CC[C@H](C1CCCC1)n1cc(-c2ncnc3[nH]ccc23)cn1 [ruxolitinib] + Cn1cnc2c(F)c(Nc3ccc(Br)cc3Cl)c(C(=O)NOCCO)cc21 [selumetinib] (first compound 1 µM, partner dose 0.015 µM)",111,94.4,135,90,117,89.7,96.5,118,125,136,93,106,87.3,108
"N#CC[C@H](C1CCCC1)n1cc(-c2ncnc3[nH]ccc23)cn1 [ruxolitinib] + Nc1nc(F)nc2c1ncn2[C@@H]1O[C@H](CO)[C@@H](O)[C@@H]1O [fludarabine] (first compound 1 µM, partner dose 0.2 µM)",102,43,105,94.8,93.7,10.3,28.9,96.2,108,97.6,,37.2,88.8,57.9

# From the supplement of paper PMC4604168 (melanoma cell lines)
